This list was built around the results that the source calls inconclusive (neither active nor inactive); the mix of calls is not that of the screen. For some assays here: A potency beside an inconclusive call is a rough fit, not a confirmed value. The source made the active and inactive calls. Unless noted, calls come from the whole dose curve; as a rule, active = well fitted curve in the direction sought with a large enough effect in the repeat runs; inconclusive = weak or mixed curves; inactive = no such curve, though single readings can be large; an effect the other way counts as inactive or inconclusive.
Experiments:
[1] = target: Aryl hydrocarbon receptor (Homo sapiens) (UniProt P35869); experiment: qHTS assay to identify small molecule that activate the aryl hydrocarbon receptor (AhR) signaling pathway (AID 743085); note: nearly all actives have a fitted effect of over 15% in size;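 for activation: HG2L7.5c1 human HepG2 liver cells with stably integrated DRE-driven firefly reporter; % is set by controls: 0 for no effect and ±100 for the full control effect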
Sequence of UniProt P35869 (P35869 whole entry, looked up): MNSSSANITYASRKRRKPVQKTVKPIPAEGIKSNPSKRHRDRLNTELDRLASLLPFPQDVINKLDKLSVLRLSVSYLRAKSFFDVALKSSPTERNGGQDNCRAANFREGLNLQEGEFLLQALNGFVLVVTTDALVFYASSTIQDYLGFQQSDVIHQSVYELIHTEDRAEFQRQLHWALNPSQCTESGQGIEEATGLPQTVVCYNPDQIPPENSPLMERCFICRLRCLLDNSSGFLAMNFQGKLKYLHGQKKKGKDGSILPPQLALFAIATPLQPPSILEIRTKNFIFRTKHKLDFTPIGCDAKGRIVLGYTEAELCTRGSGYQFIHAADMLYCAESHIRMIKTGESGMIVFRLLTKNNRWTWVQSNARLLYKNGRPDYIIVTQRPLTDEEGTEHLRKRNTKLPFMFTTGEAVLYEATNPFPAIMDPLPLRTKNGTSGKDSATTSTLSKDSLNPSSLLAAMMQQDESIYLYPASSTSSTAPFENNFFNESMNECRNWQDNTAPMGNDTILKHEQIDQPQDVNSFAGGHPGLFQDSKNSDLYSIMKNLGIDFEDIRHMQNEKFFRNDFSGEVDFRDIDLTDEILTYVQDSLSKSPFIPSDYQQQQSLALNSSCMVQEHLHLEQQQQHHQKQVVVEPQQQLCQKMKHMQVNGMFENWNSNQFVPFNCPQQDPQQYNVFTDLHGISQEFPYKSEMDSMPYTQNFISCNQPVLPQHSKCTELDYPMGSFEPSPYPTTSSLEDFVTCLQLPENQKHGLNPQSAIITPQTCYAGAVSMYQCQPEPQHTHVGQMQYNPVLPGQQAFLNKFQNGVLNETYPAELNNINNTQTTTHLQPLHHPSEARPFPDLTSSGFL
Summary of the method: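 HepG2 cells stably carrying a 20-DRE firefly luciferase reporter (HG2L7.5c1) treated with compound for 24 hr at 37C. Luciferase read by ONE-Glo luminescence, with CellTiter-Fluor viability read first.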

[2] = target: Vitamin D3 receptor (Homo sapiens) (UniProt P11473); experiment: qHTS assay to identify small molecule antagonists of the vitamin D receptor (VDR) signaling pathway (AID 743223; active = well fitted inhibition curve with a large enough effect in the signal ratio in the repeat runs, not every such curve was filed as active; inconclusive = weak or mixed curves, or effect the other way; inactive = no such curve, though single readings can be large or run the other way; the % refers to the signal ratio; for activity change, negative = inhibition: % is set by controls: 0 for no effect and ±100 for the full control effect); conditions: VDR-UAS-bla HEK293T, beta-lactamase FRET ratio, 16 h; activity change, negative = inhibition: at 61 µM (top of the series) unless noted
Sequence of UniProt P11473 (P11473 whole entry, looked up): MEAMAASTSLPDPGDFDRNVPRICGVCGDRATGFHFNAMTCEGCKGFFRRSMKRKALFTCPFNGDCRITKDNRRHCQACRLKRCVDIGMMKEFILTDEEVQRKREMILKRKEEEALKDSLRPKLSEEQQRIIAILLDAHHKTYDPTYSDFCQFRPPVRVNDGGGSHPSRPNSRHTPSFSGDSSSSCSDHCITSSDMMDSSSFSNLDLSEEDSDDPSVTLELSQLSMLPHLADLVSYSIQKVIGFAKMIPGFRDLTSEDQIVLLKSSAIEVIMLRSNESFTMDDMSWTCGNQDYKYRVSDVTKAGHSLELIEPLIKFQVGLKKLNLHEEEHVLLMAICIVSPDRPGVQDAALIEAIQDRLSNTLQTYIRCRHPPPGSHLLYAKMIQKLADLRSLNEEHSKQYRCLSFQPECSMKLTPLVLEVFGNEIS
Summary of the method: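 VDR-bla cells were treated with compound plus 3 nM final 1alpha,25-dihydroxyvitamin D3 for 16 h at 37C. Beta-lactamase reporter read by B/G FRET substrate fluorescence after 2 h at room temperature. qHTS format.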

[3] = qHTS assay for small molecule agonists of the antioxidant response element (ARE) signaling pathway (AID 743202; active = well fitted activation curve with a large enough effect in the signal ratio in the repeat runs, not every such curve was filed as active; inconclusive = weak or mixed curves, or effect the other way; inactive = no such curve, though single readings can be large or run the other way; the % refers to the signal ratio; for activation: % is set by controls: 0 for no effect and ±100 for the full control effect); conditions: HepG2 ARE-bla reporter, beta-lactamase FRET, 16 h; activation: at 73.3 µM (top of the series) unless noted
Summary of the method: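 Following a 16 h, 37 C exposure of reporter HepG2 cells (ARE-driven beta-lactamase, 2,000 cells/well) to compounds, FRET substrate was applied for 2 h at room temperature and fluorescence intensity recorded.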

[4] = qHTS assay for small molecule activators of the heat shock response signaling pathway (AID 743210; active = well fitted activation curve with a large enough effect in the signal ratio in the repeat runs, with a control signal flat, not every such curve was filed as active; inconclusive = weak or mixed curves; the % refers to the signal ratio; for activation: % is set by controls: 0 for no effect and ±100 for the full control effect); conditions: HeLa HSE-bla reporter, beta-lactamase ratio, 5 h; activation: at 62.6 µM (top of the series)
Summary of the method: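 Heat shock element–beta-lactamase HeLa reporter cells; qHTS with compounds for 5 h at 37 C; detection by FRET substrate fluorescence after 2.5 h at RT.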

[5] = target: Peroxisome proliferator-activated receptor delta (Homo sapiens) (UniProt Q03181); experiment: qHTS assay to identify small molecule agonists of the peroxisome proliferator-activated receptor delta (PPARd) signaling pathway (AID 743212; calls by dose curve); conditions: HEK293H PPARd-UAS-bla, beta-lactamase FRET ratio, 17 h; activation: at 62.6 µM (top of the series) unless noted
Sequence of UniProt Q03181 (Q03181 whole entry, looked up): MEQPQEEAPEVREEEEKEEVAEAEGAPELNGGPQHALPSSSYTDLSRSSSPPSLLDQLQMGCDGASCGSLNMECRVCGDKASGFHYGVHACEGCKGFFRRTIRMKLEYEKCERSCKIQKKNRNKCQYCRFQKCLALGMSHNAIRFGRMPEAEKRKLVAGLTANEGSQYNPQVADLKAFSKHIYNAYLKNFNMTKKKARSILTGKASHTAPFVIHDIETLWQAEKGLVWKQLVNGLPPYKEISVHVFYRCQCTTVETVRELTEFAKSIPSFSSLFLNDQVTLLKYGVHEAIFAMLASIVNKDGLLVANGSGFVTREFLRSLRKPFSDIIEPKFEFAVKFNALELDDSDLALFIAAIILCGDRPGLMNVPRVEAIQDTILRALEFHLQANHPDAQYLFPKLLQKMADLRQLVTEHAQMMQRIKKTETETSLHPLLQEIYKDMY
Summary of the method: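 Beta-lactamase reporter read by fluorescence (LiveBLAzer B/G FRET, 2 h, room temperature). Test agents, in DMSO, incubated at 37 C with PPARd-bla HEK293H cells.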

[6] = qHTS assay to identify small molecule that activate the aryl hydrocarbon receptor (AhR) signaling pathway - cell viability counter screen (AID 743086); note: nearly all actives have a fitted effect of over 45% in size
Summary of the method: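 HepG2-AhR-luc (HG2L7.5c1) cells, 4000/well, were preincubated 5 h at 37C, exposed to compound in qHTS format for 24 hr at 37C, then given CellTiter-Fluor for 30 min; viability was read as fluorescence in the reporter wells.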

[7] = target: Peroxisome proliferator-activated receptor gamma (Homo sapiens) (UniProt P37231); experiment: qHTS assay to identify small molecule agonists of the peroxisome proliferator-activated receptor gamma (PPARg) signaling pathway (AID 743094; active = well fitted activation curve with a large enough effect in the signal ratio in the repeat runs, not every such curve was filed as active; inconclusive = weak or mixed curves, or effect the other way; inactive = no such curve, though single readings can be large or run the other way; the % refers to the signal ratio); conditions: HEK293H PPARg-UAS-bla, beta-lactamase FRET ratio, 17 h; activation: at 57 µM (top of the series) unless noted
Sequence of UniProt P37231 (P37231 whole entry, looked up): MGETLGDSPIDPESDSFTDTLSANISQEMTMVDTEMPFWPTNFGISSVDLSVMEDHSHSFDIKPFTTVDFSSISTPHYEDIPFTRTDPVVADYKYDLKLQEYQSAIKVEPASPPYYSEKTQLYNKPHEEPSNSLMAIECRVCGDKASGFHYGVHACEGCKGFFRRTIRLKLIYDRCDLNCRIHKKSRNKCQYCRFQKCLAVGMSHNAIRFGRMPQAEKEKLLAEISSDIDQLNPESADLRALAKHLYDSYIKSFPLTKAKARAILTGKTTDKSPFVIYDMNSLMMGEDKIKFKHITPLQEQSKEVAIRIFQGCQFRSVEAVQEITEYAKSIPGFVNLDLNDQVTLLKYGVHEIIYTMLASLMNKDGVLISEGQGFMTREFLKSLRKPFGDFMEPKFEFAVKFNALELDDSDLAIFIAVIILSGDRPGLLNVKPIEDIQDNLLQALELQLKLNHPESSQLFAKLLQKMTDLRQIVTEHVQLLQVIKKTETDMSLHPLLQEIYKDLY
Summary of the method: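 Reporter activation was scored by fluorescence of cleaved LiveBLAzer B/G substrate (1 h, room temperature) in PPARg-bla HEK293H cells previously treated 17 h at 37C with DMSO-dissolved compounds.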

[8] = target: Peroxisome proliferator-activated receptor gamma (Homo sapiens) (UniProt P37231); experiment: qHTS assay to identify small molecule antagonists of the peroxisome proliferator-activated receptor gamma (PPARg) signaling pathway (AID 743191; calls by dose curve; note: nearly all actives have a fitted effect of over 30% in size); conditions: HEK293H PPARg-UAS-bla, beta-lactamase ratio, antagonist, 17 h; ratio activity, negative = inhibition: at 62.6 µM (top of the series) unless noted
Summary of the method: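 GeneBLAzer PPARg UAS-bla HEK293H cells carrying a UAS-driven beta-lactamase reporter were plated at 3000 cells/well, preincubated 5 h at 37C, then given compound for 17 h at 37C; LiveBLAzer B/G FRET substrate was read after 1 h at room temperature.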

[9] = qHTS assay to identify small molecule antagonists of the peroxisome proliferator-activated receptor gamma (PPARg) signaling pathway - cell viability counter screen (AID 743194); conditions: PPARg-bla HEK293H viability, CellTiter-Glo luminescence, 17 h, co-treated with 50 nM rosiglitazone; activity change, negative = cytotoxicity: at 62.6 µM (top of the series); note: nearly all actives have a fitted effect of over 55% in size
Summary of the method: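 PPARg-UAS-bla HEK293H cells were plated, rested 5 h at 37 C, then treated with compounds plus rosiglitazone (50 nM final) for 17 h at 37 C; viability was then read by CellTiter-Glo luminescence after 30 min at room temperature.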

[10] = qHTS assay to identify small molecule antagonists of the peroxisome proliferator-activated receptor delta (PPARd) signaling pathway - cell viability counter screen (AID 743213); conditions: PPARd-bla HEK293H viability, CellTiter-Glo luminescence, 17 h; viability change, negative = cytotoxic: at 62 µM (top of the series) unless noted; note: nearly all actives have a fitted effect of over 50% in size
Summary of the method: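 Viability counter-screen, qHTS format: PPARd-bla HEK293H, L165041 300 nM final, 17 h compound exposure at 37 C, CellTiter-Glo luminescence after 30 min RT.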

[11] = target: Bile acid receptor (Homo sapiens) (UniProt Q96RI1); experiment: qHTS assay to identify small molecule antagonists of the farnesoid-X-receptor (FXR) signaling pathway (AID 743217; active = well fitted inhibition curve with a large enough effect in the signal ratio in the repeat runs, not every such curve was filed as active; inconclusive = weak or mixed curves, or effect the other way; inactive = no such curve, though single readings can be large or run the other way; the % refers to the signal ratio); conditions: HEK293T FXR-UAS-bla, beta-lactamase ratio, CDCA-stimulated, 16 h; activity change, negative = inhibition: at 62.6 µM (top of the series) unless noted
Sequence of UniProt Q96RI1 (Q96RI1 whole entry, looked up): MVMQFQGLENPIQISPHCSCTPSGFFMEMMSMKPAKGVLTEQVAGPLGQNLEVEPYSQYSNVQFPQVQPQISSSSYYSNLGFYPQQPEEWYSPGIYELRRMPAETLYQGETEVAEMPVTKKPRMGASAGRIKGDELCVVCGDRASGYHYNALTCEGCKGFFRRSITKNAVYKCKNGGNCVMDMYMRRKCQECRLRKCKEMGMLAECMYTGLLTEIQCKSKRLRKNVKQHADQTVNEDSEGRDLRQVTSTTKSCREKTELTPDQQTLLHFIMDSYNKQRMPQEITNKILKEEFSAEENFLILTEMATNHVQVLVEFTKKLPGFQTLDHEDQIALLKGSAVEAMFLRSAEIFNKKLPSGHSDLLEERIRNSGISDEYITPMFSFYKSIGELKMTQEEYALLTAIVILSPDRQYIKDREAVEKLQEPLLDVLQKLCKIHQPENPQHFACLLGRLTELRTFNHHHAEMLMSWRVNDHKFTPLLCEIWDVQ
Summary of the method: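 Screen of the Tox21 10K library in quantitative HTS format using FXR-UAS-bla HEK 293T reporter cells. Agonist chenodeoxycholic acid, 50 uM final, added with compounds; 16 h incubation at 37 °C; beta-lactamase FRET fluorescence measured.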

[12] = qHTS assay to identify small molecule agonists of the farnesoid-X-receptor (FXR) signaling pathway - cell viability counter screen (AID 743218); conditions: FXR-bla HEK293T viability, CellTiter-Glo luminescence, 16 h; viability change, negative = cytotoxic: at 62.6 µM (top of the series) unless noted; note: nearly all actives have a fitted effect of over 45% in size
Summary of the method: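 Viability of FXR-bla HEK 293T cells is measured by ATP-based CellTiter-Glo luminescence following 16 h compound treatment at 37 C and a prior 2 h room-temperature beta-lactamase substrate step.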

[13] = qHTS assay to identify small molecule antagonists of the farnesoid-X-receptor (FXR) signaling pathway - cell viability counter screen (AID 743221; active = well fitted cell-killing curve with a large enough effect in the repeat runs, not every such curve was filed as active; inconclusive = weak or mixed curves, or effect the other way; inactive = no such curve, though single readings can be large or run the other way; note: nearly all actives have a fitted effect of over 50% in size); conditions: FXR-bla HEK293T viability, CellTiter-Glo luminescence, 16 h; activity change, negative = cytotoxicity: at 62.6 µM (top of the series)
Summary of the method: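 GeneBLAzer FXR-UAS-bla HEK 293T cells, compound plus chenodeoxycholic acid (50 uM final), 16 h at 37 C. CellTiter-Glo added to the same wells after the beta-lactamase read; luminescence read after 30 min at room temperature as viability.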

[14] = qHTS assay to identify small molecule agonists of the peroxisome proliferator-activated receptor delta (PPARd) signaling pathway - cell viability counter screen (AID 743211); conditions: PPARd-bla HEK293H viability, CellTiter-Glo luminescence, 17 h; activity change, negative = cytotoxicity: at 62.6 µM (top of the series); note: nearly all actives have a fitted effect of over 55% in size
Summary of the method: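 PPARd-bla HEK293H cells (3000/well) were pre-incubated 5 h at 37 C, then exposed to compound for 17 h at 37 C. After 2 h with LiveBLAzer substrate, CellTiter-Glo was added to the same wells; luminescence read after 30 min at room temperature.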

[15] = target: Peroxisome proliferator-activated receptor delta (Homo sapiens) (UniProt Q03181); experiment: qHTS assay to identify small molecule antagonists of the peroxisome proliferator-activated receptor delta (PPARd) signaling pathway (AID 743215; active = well fitted inhibition curve with a large enough effect in the signal ratio in the repeat runs, not every such curve was filed as active; inconclusive = weak or mixed curves, or effect the other way; inactive = no such curve, though single readings can be large or run the other way; the % refers to the signal ratio;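 note: cells stimulated with agonist L165041 at 300 nM final during compound exposure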); conditions: HEK293H PPARd-UAS-bla, beta-lactamase FRET ratio, antagonist, 17 h; ratio activity, negative = inhibition: at 62 µM (top of the series) unless noted
Summary of the method: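 Plated HEK293H PPARd-bla cells rested 5 h at 37 C and 5% CO2. Compound, then agonist L165041 at 300 nM final, was added; 17 h at 37 C followed. Substrate loading, 2 h room temperature, fluorescence measured.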

[16] = target: Vitamin D3 receptor (Homo sapiens) (UniProt P11473); experiment: qHTS assay to identify small molecule agonists of the vitamin D receptor (VDR) signaling pathway (AID 743222; calls by dose curve); conditions: HEK293T VDR-UAS-bla, beta-lactamase FRET ratio, 16 h; activation: at 63.5 µM (top of the series) unless noted
Summary of the method: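 Fluorescence from cleaved LiveBLAzer B/G FRET substrate served as readout. VDR-bla cells had been treated 16 h at 37C with test compounds in DMSO, following a 4 h settling period, and substrate was loaded for 2 h at RT.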
Potency is the fitted concentration of half-maximal effect; tags give direction and shape of the fitted curve or compound fluorescence and quenching.

In the case of `C[C@H](CCC(=O)O)[C@H]1CC[C@H]2[C@@H]3C(=O)C[C@@H]4CC(=O)CC[C@]4(C)[C@H]3CC(=O)[C@]12C`, the Potency [1] is reported as “inactive” and the Potency [2] is reported as “inactive”.

With `O=[N+]([O-])c1ccccc1CCO` the Potency [1] was inconclusive: 61.8 µM [activator, partial curve, poor fit], the activation [3] was inconclusive: 33.8% [at 94.8 µM] and the Potency [4] was “inactive”. The Potency [5] was “inactive”.

In the case of `O=C1C=CC(=O)N1`, the Potency [6] is reported as inconclusive: 70.4 µM [falling, single point], the Potency [7] is reported as inconclusive: 56.4 µM [fluorescent, single point] and the Potency [8] is reported as inconclusive: 63.3 µM [rising, single point]. The Potency [9] was active: 25.2 µM, the Potency [3] was inconclusive: 62.8 µM and the Potency [4] was inconclusive: 29.4 µM. The Potency [5] was inconclusive: 56.4 µM [single point], the Potency [10] was active: 44.8 µM and the Potency [11] was inconclusive: 63.3 µM [inhibitor, single point]. For the same compound, the Potency [12] was inconclusive: 56.4 µM [cytotoxic, single point], the Potency [13] was inconclusive: 56.4 µM [falling, single point] and the Potency [2] was inconclusive: 22.5 µM.

In the case of `C=CC(=C)CCC=C(C)C`, the Potency [1] is reported as inconclusive: 77 µM [activator, partial curve, poor fit], the activation [3] is reported as inconclusive: 38.7% and the Potency [14] is reported as inconclusive: 54.9 µM [cytotoxic, single point]. The Potency [10] was inconclusive: 61.6 µM [cytotoxic, single point].

For `O[C@@H](c1cc(C(F)(F)F)nc2c(C(F)(F)F)cccc12)[C@H]1CCCCN1`, the Potency [6] was active: 29.8 µM, the Potency [7] was inconclusive: 10.7 µM [partial curve, poor fit] and the Potency [8] was inconclusive: 29.8 µM [partial curve]. For the same compound, the Potency [9] was active: 29.8 µM, the activation [4] was inconclusive: 7.38% and the Potency [5] was inconclusive: 7.5 µM [rising, partial curve]. For the same compound, the Potency [10] was active: 8.41 µM, the Potency [15] was active: 13.3 µM and the Potency [11] was inconclusive: 33.5 µM [inhibitor, single point]. For the same compound, the Potency [12] was active: 13.3 µM, the Potency [13] was active: 26.6 µM and the Potency [16] was inconclusive: 26.6 µM [rising, single point]. The Potency [2] was inconclusive: 21.3 µM [rising, partial curve].

From PubChem BioAssay (Tox21)
